# Measured values as given in the supplement of paper PMC3334620.
# Whole data set: some 33,000 sequences, median “E-score (-0.5 to 0.5)” near -0.054, cut for the highest 2% near 0.35. The list shows a part of the results.
# Biological target: T1, Stb5 (UniProt P38699)
# T1 sequence: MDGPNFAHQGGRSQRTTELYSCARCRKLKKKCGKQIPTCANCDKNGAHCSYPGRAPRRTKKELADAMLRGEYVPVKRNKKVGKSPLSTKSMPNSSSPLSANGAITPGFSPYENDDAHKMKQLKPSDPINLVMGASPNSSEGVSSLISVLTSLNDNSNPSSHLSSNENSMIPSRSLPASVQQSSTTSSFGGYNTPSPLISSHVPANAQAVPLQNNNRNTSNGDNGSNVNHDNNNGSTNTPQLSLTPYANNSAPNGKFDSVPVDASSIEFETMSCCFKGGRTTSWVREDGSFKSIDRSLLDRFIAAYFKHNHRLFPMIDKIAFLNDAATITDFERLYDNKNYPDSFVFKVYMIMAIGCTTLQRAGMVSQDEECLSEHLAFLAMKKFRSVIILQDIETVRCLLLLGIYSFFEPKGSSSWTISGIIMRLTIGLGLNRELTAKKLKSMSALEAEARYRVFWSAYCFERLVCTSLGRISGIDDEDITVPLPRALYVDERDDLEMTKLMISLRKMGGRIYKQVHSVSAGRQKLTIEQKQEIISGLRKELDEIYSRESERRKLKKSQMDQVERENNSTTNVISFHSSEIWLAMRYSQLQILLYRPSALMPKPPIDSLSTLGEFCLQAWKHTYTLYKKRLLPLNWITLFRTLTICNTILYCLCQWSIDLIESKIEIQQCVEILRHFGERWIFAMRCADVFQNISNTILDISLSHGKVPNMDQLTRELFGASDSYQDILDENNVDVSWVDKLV
# Test: PBM E-score (8-mer binding enrichment) (E-score (-0.5 to 0.5)); higher = stronger / more preferred TF binding; most listed sequences are background and not binding sites
# Details: protein concentration: 200 nM; construct: GST-full length
# Procedure: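 Universal 'all 10-mer' protein binding microarrays (Agilent AMADID 015681) probed with GST-tagged S. cerevisiae TFs (full-length or DBD) made by in vitro transcription/translation (PURExpress), about 100-200 nM. Bound TF was detected with fluorescent anti-GST. Each ungapped 8-mer (which stands for itself and its reverse complement) is scored by the PBM enrichment score (E-score), a modified Wilcoxon-Mann-Whitney statistic from -0.5 to +0.5, computed with the Universal PBM Analysis Suite. Scale: above 0.35 generally sequence-specific binding.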
row,Sequence,PBM E-score
1,AGAATCAT,-0.352
2,ACAAGTGC,-0.12
3,CTCGAGCA,-0.111
4,CTTCATCC,-0.149
5,CTAAATGA,-0.0107
6,CCGCGGGC,0.335
7,AAGCCCTC,-0.212
8,TCATAAAA,0.0474
9,ACACATAC,-0.0739
10,AAAGTGGT,-0.2
11,ATCAAGCC,-0.0665
12,CAAAACGG,0.174
13,AAACCGAC,0.222
14,GCTCTTCC,-0.0228
15,CCTAACCG,0.0522
16,ATCTCTGA,-0.172
17,ATTCATCG,0.0533
18,ACACTGAG,-0.202
19,CGTGCCGC,0.249
20,ACTTGAAG,-0.228
21,CAGAAACA,-0.147
22,GCAAACTA,-0.229
23,AATCCGAT,0.273
24,CCAGTGTC,-0.136
25,GGACTGAA,0.0173

row,Sequence,PBM E-score
1,ACGGAATG,-0.0673
2,ACACCTAA,-0.0437
3,AGCGGTTC,0.0808
4,CAGTCCGA,0.273
5,CCTGCCCA,-0.218
6,CCGTGGAG,0.212
7,CTGTAAAG,-0.125
8,CATGCGAA,-0.0641
9,CCCTCATC,-0.234
10,CCTCGCAG,-0.138
11,ACGCCAAT,-0.0245
12,ATTGTGAG,0.022
13,AATAGACG,-0.0169
14,ATCGTCAG,-0.181
15,ATCACTGA,-0.105
16,CTACTGCA,-0.304
17,CAGTCAGG,-0.29
18,CGCCTGTC,-0.0556
19,CAAGAGAG,-0.209
20,GAAATATA,0.222
21,TAGATACA,-0.231
22,AAGGCGTC,-0.106
23,GTCGAGGA,-0.246
24,ACCATGCC,0.0581
25,AACCACAG,-0.119

row,Sequence,PBM E-score
1,CAGGCCGG,0.11
2,GCCGTACC,0.285
3,ACGAAATA,-0.0345
4,GCACAGTA,-0.146
5,CGACTTTC,0.112
6,CATGGGAC,-0.0822
7,AACGGTCA,0.23
8,GCAGGGCC,-0.0449
9,GATGGCAA,-0.0254
10,GGACGGAC,0.359
11,AGTCCTTG,-0.184
12,CGCCGCTA,0.412
13,AGTGCCCA,0.0998
14,TAAAGCTA,-0.309
15,ATCGTATC,-0.175
16,GCAAGAAA,0.0635
17,AACTGCCG,0.264
18,CCGAGACG,-0.00753
19,CGCAAGAA,-0.0944
20,AATACCGG,0.417
21,CGCTCAGA,0.0527
22,CCTTCGGA,0.148
23,AGCGCATA,-0.0709
24,AACTGCCA,-0.186
25,CTTAGGTC,-0.0214

row,Sequence,PBM E-score
1,ATCCCACG,-0.0572
2,AGCATACG,-0.0276
3,CCTATAGC,-0.0839
4,ACGTCATA,-0.0901
5,CTAATATC,-0.00779
6,GCCAGATA,-0.0616
7,CCGTCAGC,0.0956
8,ACCATCAA,-0.205
9,CTCACTAA,-0.158
10,TCGACCAA,-0.271
11,GTGGCGTA,-0.0392
12,TATTCCAA,-0.198
13,CTGTTACC,0.172
14,GCGTAGAC,-0.143
15,ATGTTGTG,-0.0319
16,ACCGGCGC,0.336
17,ACCGCCAA,0.276
18,AGGAACTG,-0.197
19,CATTCTTA,-0.154
20,CGCCAAAA,0.00806
21,ACTTCGAC,-0.0543
22,CATGCTGG,-0.285
23,ATCCAAGA,-0.19
24,CTCTGATC,-0.204
25,GTGGAATA,-0.0368

row,Sequence,PBM E-score
1,ACTCCGCG,0.357
2,GACGAGCA,-0.21
3,ACGACAGA,-0.266
4,TGAGATAA,-0.0775
5,ACCAAAAC,-0.0352
6,TAACACTA,0.00416
7,ACCGGGAG,0.166
8,ATGTCTCC,0.257
9,AGGACCGG,0.306
10,GGACCGGA,0.278
11,CGTGAAGA,-0.0731
12,CTGGACGC,-0.144
13,GAATATCA,0.118
14,CCTTCTTA,-0.131
15,GGCAGCCA,-0.118
16,ATAAGATC,-0.0939
17,CACAACCG,-0.0538
18,CAGATCCC,0.0468
19,CTACTTGA,-0.202
20,ATGTGGAC,-0.126
21,ATGGACGA,-0.0936
22,GCTCTAGA,-0.0477
23,CCCCGGGA,0.268
24,AGAAGATC,-0.145
25,AAACCACC,0.244

row,Sequence,PBM E-score
1,CCTGCGGC,0.183
2,ACTACCCA,-0.293
3,AGCAACAT,-0.0631
4,CCGAGCTC,-0.0734
5,CCAGTGCA,-0.29
6,AGGTCATA,-0.0441
7,ACATAAAT,-0.052
8,CAGTCGAG,-0.233
9,GGACTAAC,0.195
10,AAAGAATG,-0.0317
11,AACCTCCT,-0.234
12,GACCTGGA,-0.086
13,AGCCTAAC,-0.0833
14,CAATCCGA,-0.0426
15,AGTGGCCC,-0.181
16,GCCCCACC,0.0597
17,CCGTGCTC,0.178
18,CCTCGTCC,-0.179
19,ATATGTTC,0.207
20,GGTATGAC,0.216
21,CCTCTGAA,-0.184
22,ATAATCAC,0.00531
23,TTACAAAA,-0.079
24,GGCCCAGA,-0.0979
25,AAGCCGAT,0.2

row,Sequence,PBM E-score
1,GGCGGCCA,0.0426
2,TATACTAA,-0.108
3,ATTTACGC,-0.025
4,ATATTCGG,0.0467
5,AGTTGAGA,-0.114
6,GCTTGCTA,-0.289
7,AAGTTTCA,-0.169
8,CGCACACA,0.111
9,GGCGCCAA,0.113
10,CGTCAGTC,0.0486
11,ACCGAGTC,-0.0245
12,ACCGACAG,0.363
13,CCCGACCC,0.247
14,ACTATATA,0.138
15,CTGATAAA,-0.0855
16,GATAGCCA,-0.26
17,AGGCCCAG,-0.226
18,CATGCTAC,-0.125
19,GCACAGAA,-0.141
20,CCGGAGTA,0.308
21,CTGCGTTC,-0.151
22,CATACCAA,0.0245
